In PubChem BioAssay AID360 (National Center for Advancing Translational Sciences (NCATS), 2006):
Out of some 48,000 compounds screened, about 550 (1.1%) were called active. Another 4% or so got no clear call; they are omitted. Cut-off read from the data, not from the text of the source: active = potency below about 15 µM; inconclusive = mostly about 16 µM to 33 µM; inactive = weaker than that. Some of the results follow.

What follows are molecules tested against Lysosomal acid glucosylceramidase (Homo sapiens) (UniProt P04062) (assay: Glucocerebrosidase). Details: purified enzyme, resorufin glucoside fluorescence (screen aimed at inhibitors), 20 min.
Procedure, shortened: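 Compounds titrated against 0.2 nM normal enzyme, 30 uM resorufin beta-D-glucopyranoside substrate, citrate/phosphate buffer with taurocholate and tween-20, pH 5.9. Reaction ran 20 min at room temperature; fluorescence (Ex 548/Em 600) gave AC50.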
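Note: the screen sought inhibitors.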
Potency is the fitted concentration of half-maximal effect.

UniProt P04062, sequence (P04062 whole entry, looked up): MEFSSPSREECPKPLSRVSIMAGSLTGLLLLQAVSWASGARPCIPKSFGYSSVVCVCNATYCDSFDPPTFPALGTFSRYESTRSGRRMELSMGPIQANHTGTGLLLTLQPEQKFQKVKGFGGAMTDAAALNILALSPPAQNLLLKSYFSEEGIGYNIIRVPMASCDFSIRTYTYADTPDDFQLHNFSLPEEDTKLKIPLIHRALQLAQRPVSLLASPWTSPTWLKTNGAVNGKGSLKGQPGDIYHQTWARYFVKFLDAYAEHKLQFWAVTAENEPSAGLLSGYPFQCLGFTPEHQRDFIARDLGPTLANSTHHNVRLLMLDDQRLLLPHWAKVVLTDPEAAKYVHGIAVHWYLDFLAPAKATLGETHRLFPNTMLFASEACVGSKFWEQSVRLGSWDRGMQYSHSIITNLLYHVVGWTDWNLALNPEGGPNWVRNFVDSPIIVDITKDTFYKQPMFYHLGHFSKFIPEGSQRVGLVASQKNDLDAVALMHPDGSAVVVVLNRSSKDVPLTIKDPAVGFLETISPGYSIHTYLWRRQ

Potency, inactive:
CCn1nnc(-c2ccccc2NS(=O)(=O)c2ccc(S(=O)(=O)N3CCCCCC3)cc2)n1 > 76.9 µM, COc1ccc(COC(=O)c2nc3nc(C)cc(C)n3n2)cc1F > 76.9 µM, O=c1cc(CSc2ccccn2)nc(N2CCN(c3ccccc3)CC2)[nH]1 > 76.9 µM, CC1=C(C)CC(C(=O)Nc2cccc(Cl)c2)C(C(=O)O)C1 (configuration not stated) > 76.9 µM, CCS(=O)(=O)NCc1cn2c(C)csc2n1 > 76.9 µM, Nc1c(Sc2ccccc2)c(=O)[nH]c(=O)n1Cc1ccccc1 > 76.9 µM, O=C(c1ccccc1Cl)N1CCN(c2ccccn2)CC1 > 76.9 µM, CCCc1[nH]nc2c1C(Cc1ccccc1)C(C#N)=C(N)O2 (configuration not stated) > 76.9 µM, COc1cc(CC(=O)Nc2ccc(S(=O)(=O)Nc3ncccn3)cc2)cc(OC)c1OC > 76.9 µM, FC(F)(F)c1cc(-c2cccs2)nc(N2CCOCC2)n1 > 76.9 µM, Cc1ccc(N(C(C)C(=O)O)S(=O)(=O)c2c(C)n[nH]c2C)cc1 (configuration not stated) > 76.9 µM, O=C(Cn1nnc(-c2ccccc2)n1)N1CCN(S(=O)(=O)c2ccc(Cl)cc2)CC1 > 76.9 µM, C/C(=C(\C#N)C(=O)NCCCN1CCOCC1)N(C)C > 76.9 µM, CS(=O)(=O)N1CCN(C(=O)c2ccncc2)CC1 > 76.9 µM, Cn1nnnc1SCC(=O)NC(=O)NCc1ccccc1 > 76.9 µM, CC(=O)c1cccc(NC2c3ncccc3C(=O)N2Cc2ccco2)c1 (configuration not stated) > 76.9 µM, COc1ccc(CNC(=O)c2cccc(N3CCCC3=O)c2)cc1 > 76.9 µM, CC(=O)Nc1cc(C(F)(F)F)ccc1OCC1CCCO1 (configuration not stated) > 76.9 µM, Cn1nnnc1SCC(=O)N1CCN(c2ccc(Cl)cc2)CC1 > 76.9 µM, COC(=O)C1=CNC=C(C(=O)OC)C1c1cccc(OC)c1 > 76.9 µM, COc1ccccc1NC(=O)N(Cc1ccco1)Cc1cc2cc(C)cc(C)c2[nH]c1=O > 76.9 µM, O=C(Nc1c(C(=O)N2CCOCC2)cnn1-c1ccccc1Cl)c1ccco1 > 76.9 µM, CCN(CC)S(=O)(=O)c1ccc2[nH]c(=O)[nH]c2c1 > 76.9 µM, CCOC(=O)c1ccc(NC(=O)C(CC)(CC)C(=O)OCC)cc1 > 76.9 µM, C=CCOc1cccc(C2/C(=C(/O)c3ccc(C)cc3)C(=O)C(=O)N2CCN2CCOCC2)c1 (configuration not stated), COc1cccc(C2/C(=C(\O)c3c(C)nc4c(C)cccn34)C(=O)C(=O)N2CCCN(C)C)c1 (configuration not stated) > 76.9 µM, CCOC(=O)N1CCN(C(=O)CCc2c(C)nc3nc(C)nn3c2C)CC1 > 76.9 µM, Cc1ccccc1OCCn1c(=O)oc2ccccc21 > 76.9 µM, CN(C(=O)COC(=O)C1c2ccccc2Oc2ccccc21)C1CCS(=O)(=O)C1 (configuration not stated) > 76.9 µM, COc1ccc(Br)cc1C(=O)Nc1nnn(C)n1 > 76.9 µM, COc1ccc(CCn2nnnc2C(C(C)C)N2CCN(c3ncccn3)CC2)cc1OC (configuration not stated) > 76.9 µM, CS(=O)(=O)N(CC(=O)Nc1ccc2c(c1)OCCO2)Cc1ccc(Cl)cc1 > 76.9 µM, COc1ccccc1Oc1ccc(S(=O)(=O)NCc2ccccn2)cc1 > 76.9 µM, CC1CCC(N2CCN(c3ncccn3)CC2)CC1 (configuration not stated) > 76.9 µM, COc1ccc(C2C(C(=O)Nc3cccc(C)n3)c3ccccc3C(=O)N2C)cc1 (configuration not stated) > 76.9 µM, CCOC(=O)C1=C(C)NC(C)=C(C(=O)OCC)C1c1ccccn1 > 76.9 µM, COC(=O)C1(C)NC(c2ccco2)C2C(=O)N(c3ccc(C)cc3)C(=O)C21 (configuration not stated) > 76.9 µM, COc1cc2c(=O)n(-c3ccc(C)cc3)c(=O)n(CC(=O)c3ccc4c(c3)OCO4)c2cc1OC > 76.9 µM, Nc1ncnc(Nc2ccccc2C(F)(F)F)n1 > 76.9 µM, CC(=O)N(CC1CCCO1)c1nnc(-c2cnccn2)s1 (configuration not stated) > 76.9 µM, CCn1c(SCC(=O)c2ccc(Cl)cc2)nnc1-c1ccoc1C > 76.9 µM, COc1ccc(NC(=O)NS(=O)(=O)c2ccc(C)cc2)c(OC)c1 > 76.9 µM, Cc1ccc(C2=NCCNC2=O)c(C)c1 > 76.9 µM, CCCC(=O)Nc1nnc(-c2cccc(OCC)c2)s1 > 76.9 µM, CCCN(C(=O)c1cccs1)c1nnc(-c2ccncc2)s1 > 76.9 µM, CC(C)Cc1nc(N2CCC(C(N)=O)CC2)c2nnn(Cc3ccccc3)c2n1 > 76.9 µM, CCOC(=O)N1CCC(n2c(SCC(=O)NCc3ccco3)nc3ccsc3c2=O)CC1 > 76.9 µM, Cc1ccc(C(C)n2cc(C(=O)NCCN3CCN(C)CC3)nn2)cc1 (configuration not stated) > 76.9 µM, Cc1cccc(NC(=O)Cn2c(=O)n3nc(CCn4nc(C)cc4C)nc3c3ccccc32)c1 > 76.9 µM, O=C1C2CCCN2C(c2ccccc2F)N1c1ccc(Cl)cc1 (configuration not stated) > 76.9 µM, Cc1ccc(C)c(N(CC(=O)NC2CCCC2)C(=O)CCCC(=O)Nc2ccccn2)c1 > 76.9 µM, Cc1ccc(NC(=O)CCn2c(=O)oc3ccccc32)cc1 > 76.9 µM, O=c1c2ccccc2nnn1CSc1nnc2ccccn12 > 76.9 µM, CCC(=O)N(Cc1cc2c(C)ccc(C)c2[nH]c1=O)C1CCCCC1 > 76.9 µM, COc1cccc(OCC(O)CN2CCC(Cc3ccccc3)CC2)c1 (configuration not stated) > 76.9 µM, CN(Cc1cnn(C)c1)C(=O)c1cc2ccccc2oc1=O > 76.9 µM, COc1ccc(-c2nc3nc(C)cc(C)n3n2)cc1 > 76.9 µM
